Measurements taken from paper PMC5464627, “Design of short peptides to block BTLA/HVEM interactions for promoting anticancer T-cell responses” (PLoS ONE, 2017).
No constants are given. Whether binding was seen depends on the method and setting. Some binding calls cover weakened binding; strength is not graded here.

T1: recombinant human BTLA protein (Novoprotein, product code C563) (human) (UniProt Q7Z6A9)
T1 sequence: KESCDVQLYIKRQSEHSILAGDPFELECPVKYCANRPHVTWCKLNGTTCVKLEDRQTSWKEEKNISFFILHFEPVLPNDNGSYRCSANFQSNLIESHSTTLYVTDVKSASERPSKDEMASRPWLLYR


Target: T1, recombinant human BTLA protein (Novoprotein, product code C563) (human)
Assay: affinity microcolumn with MALDI-TOF MS; BTLA coupled to NHS-activated Sepharose in a microcolumn; peptide incubated 2 h at 25°C in NH4HCO3 pH 7.4; washed with 100 ml NH4HCO3 and 20 ml H2O; eluted with 0.1% TFA; supernatant, last wash and elution analysed by MALDI TOF/TOF; both purified

Row | binding | Binder
1 | binds | YRVKEACGELTGTVCEP (N-terminal acetyl (Ac-); C-terminal amide (-NH2)) [HVEM(23–39) peptide]
2 | no binding | ELTGTVSEP (N-terminal acetyl (Ac-); C-terminal amide (-NH2)) [HVEM(31–39) C37S]
3 | binds | ELTGTVCEP (N-terminal acetyl (Ac-); C-terminal amide (-NH2)) [HVEM(31–39)]
4 | no binding | ELCAGPVTRKVECTYGE (N-terminal acetyl (Ac-); C-terminal amide (-NH2)) [Scrambled peptide]
5 | binds | YRVKEAYGELTGTVCEP (N-terminal acetyl (Ac-); C-terminal amide (-NH2)) [HVEM(23–39) C29Y]
6 | binds | YRVKEASGELTGTVCEP (N-terminal acetyl (Ac-); C-terminal amide (-NH2)) [HVEM(23–39) C29S]
